Reference: the supplement of paper PMC12067230
This is a noisy data set.

assay: amyloid nucleation score relative to library mode (yeast Sup35 reporter selection) (log enrichment difference); higher = more amyloid nucleation; sequences are the first 22 residues of the Bri2 peptide extended by up to 12 random residues; conditions: random library (experiment): 1;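 active = nucleation score significantly above 0 at FDR 0.05; inactive = not significantly above 0 or absent from output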
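Also: [psi-pin-] Saccharomyces cerevisiae expressing SupN fusions, induced by 100 µM Cu2SO4, selected 7 d at 30 °C without adenine and uracil, scored by deep sequencing of output versus input.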

Sequence	amyloid nucleation score
EASNCFAIRHFENKFAVETLICGVGSDIV	inactive
EASNCFAIRHFENKFAVETLICDGVTAWIGVASV	inactive
EASNCFAIRHFENKFAVETLICCNGNLGRTGRAS	inactive
EASNCFAIRHFENKFAVETLICCKLFEYGMGLRV	0.542
EASNCFAIRHFENKFAVETLICPHVALFCVLSPS	inactive
EASNCFAIRHFENKFAVETLICNNGRKCVMPDWG	inactive
EASNCFAIRHFENKFAVETLICQCVKCGDRFRRL	2.45
EASNCFAIRHFENKFAVETLICRYVGHTPTYFLE	inactive
EASNCFAIRHFENKFAVETLICEDARKGVGEAWE	inactive
EASNCFAIRHFENKFAVETLICCHALQYPRVRRW	1.94
EASNCFAIRHFENKFAVETLICTVWMHP	inactive
EASNCFAIRHFENKFAVETLICKGIGRY	inactive
EASNCFAIRHFENKFAVETLICKVHSYDCVRDQW	3.15
EASNCFAIRHFENKFAVETLICESNSGWLHVQGL	inactive
EASNCFAIRHFENKFAVETLICPYPWRNRRGRVA	inactive
EASNCFAIRHFENKFAVETLICVVMPLALVRTGE	0.74
EASNCFAIRHFENKFAVETLICFVVI	5.11
EASNCFAIRHFENKFAVETLICWA	inactive
EASNCFAIRHFENKFAVETLICMGHRVEYMEVKS	3.82
EASNCFAIRHFENKFAVETLICERGVHGWKHGLR	3.36
EASNCFAIRHFENKFAVETLICIMVNWFRFLHAE	inactive

Sequence	amyloid nucleation score
EASNCFAIRHFENKFAVETLICFDHRLA	inactive
EASNCFAIRHFENKFAVETLICVLVRTAVKGLRV	inactive
EASNCFAIRHFENKFAVETLICDTSRLHRSGWTG	2.96
EASNCFAIRHFENKFAVETLICVCALECVRKWCL	inactive
EASNCFAIRHFENKFAVETLICYLWD	6.61
EASNCFAIRHFENKFAVETLICYGWGAIQHARRD	3.91
EASNCFAIRHFENKFAVETLICCNVSKQ	8.08
EASNCFAIRHFENKFAVETLICRYQSVSFFCVLD	inactive
EASNCFAIRHFENKFAVETLICLWKVGGGMSLAW	-0.195
EASNCFAIRHFENKFAVETLICLEPW	inactive
EASNCFAIRHFENKFAVETLICCVCRKLKHSCWA	inactive
EASNCFAIRHFENKFAVETLICMARLHQAPSDWS	inactive
EASNCFAIRHFENKFAVETLICRPAGVCQHVQGG	inactive
EASNCFAIRHFENKFAVETLICWLGIHTPLQAIG	inactive
EASNCFAIRHFENKFAVETLICGVRHGDDRGPSA	inactive
EASNCFAIRHFENKFAVETLICGDAYTTVSMGER	6.93
EASNCFAIRHFENKFAVETLICVTLYWSPCDADD	0.494
EASNCFAIRHFENKFAVETLICLELLCMEEGVRV	inactive
EASNCFAIRHFENKFAVETLICLGAFSRPTKWVT	inactive
EASNCFAIRHFENKFAVETLICCNRWGVWDKRVV	3.37

same assay, conditions: random library (experiment): 2

Sequence	amyloid nucleation score
EASNCFAIRHFENKFAVETLICIHTCILINFMVA	inactive
EASNCFAIRHFENKFAVETLICVCSLYM	inactive
EASNCFAIRHFENKFAVETLICMRDVNNRYDQSV	7.2
EASNCFAIRHFENKFAVETLICYGDYFYPSFWFV	6.04
EASNCFAIRHFENKFAVETLICLIHKKSHIKL	inactive
EASNCFAIRHFENKFAVETLICLTKSLHTAYRAY	inactive
EASNCFAIRHFENKFAVETLICCGWRLQGVEGLA	5.96
EASNCFAIRHFENKFAVETLICLQRIAIVCLKRE	inactive
EASNCFAIRHFENKFAVETLICPMHIYFSFFFSS	inactive
EASNCFAIRHFENKFAVETLICKMWVLWKYVGTN	-0.0677
EASNCFAIRHFENKFAVETLICYLDNNIYYAPAR	8
EASNCFAIRHFENKFAVETLICYWYSMFEYDTFL	inactive
EASNCFAIRHFENKFAVETLICMFTVSCLFFHIS	inactive
EASNCFAIRHFENKFAVETLICEFKSPIGNVYWL	3.95
EASNCFAIRHFENKFAVETLICVWYLRVSRCIAV	inactive
EASNCFAIRHFENKFAVETLICLAWNSWSWTIGC	4.64
EASNCFAIRHFENKFAVETLICKVT	-0.00995
EASNCFAIRHFENKFAVETLICCYFA	7.77
